Test results from article PMC6919601, “Identification of Plasmodium dipeptidyl aminopeptidase allosteric inhibitors by high throughput screening” (PLoS ONE, 2019).
The campaign covered roughly 110,000 compounds. About 230 (0.21%) showed an effect of 50% or more. The list shows a part of the results.

molecular target: DPAP1 (Plasmodium falciparum, UniProt Q8IIJ9); assay: primary screen, percent inhibition; read by cleavage of a fluorogenic dipeptide substrate; higher = more effect of the substance; design: species or system P. falciparum D10 trophozoite lysates; single well
Sequence (Q8IIJ9 whole entry, looked up): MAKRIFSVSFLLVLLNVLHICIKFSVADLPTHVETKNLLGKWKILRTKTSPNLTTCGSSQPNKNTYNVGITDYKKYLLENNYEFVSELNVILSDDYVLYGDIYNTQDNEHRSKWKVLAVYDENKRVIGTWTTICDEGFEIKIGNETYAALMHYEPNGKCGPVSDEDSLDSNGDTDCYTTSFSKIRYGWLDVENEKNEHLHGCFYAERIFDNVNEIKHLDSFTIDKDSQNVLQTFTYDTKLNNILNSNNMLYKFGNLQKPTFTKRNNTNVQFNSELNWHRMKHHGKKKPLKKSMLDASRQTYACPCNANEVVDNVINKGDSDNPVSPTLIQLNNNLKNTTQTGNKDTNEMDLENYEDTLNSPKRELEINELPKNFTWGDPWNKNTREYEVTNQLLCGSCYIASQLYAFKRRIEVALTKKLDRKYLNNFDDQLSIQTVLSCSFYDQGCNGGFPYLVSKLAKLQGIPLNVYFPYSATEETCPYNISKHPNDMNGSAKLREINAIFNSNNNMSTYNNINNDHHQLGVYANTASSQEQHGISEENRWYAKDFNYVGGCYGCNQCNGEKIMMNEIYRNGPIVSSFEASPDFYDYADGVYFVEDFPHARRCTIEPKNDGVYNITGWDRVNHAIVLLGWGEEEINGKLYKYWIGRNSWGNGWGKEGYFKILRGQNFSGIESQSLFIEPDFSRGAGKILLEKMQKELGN
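Further: 30 min substrate incubation versus DMSO and 10 µM JCP410 controls.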

Point of comparison: COc1ccc(-c2cc(=O)c3ccccc3o2)cc1OC, “% Inhibition @ 10 uM” value 0.635%. Against it:
- O=C1S/C(=C/c2cccc(O)c2)C(=O)N1Cc1ccc(F)cc1 — lower, -1.88%
- CC(=O)N1CCN(C(C)Cc2ccccc2F)CC1 (centres unmarked) — lower, -6.62%
- Cc1ccccc1NC(=O)C1C2CCC(O2)C1C(=O)O (centres unmarked) — lower, -3.34%
- O=C(c1ccc(CS(=O)c2ccccc2)o1)N1CCOCC1 (centres unmarked) — lower, -4.96%
- COc1ccc(C2C(C#N)=C(N)Oc3cc(N)ccc32)cc1 (centres unmarked) — higher, 6.29%
- Cc1ccc(CNC(=O)c2nnn(Cc3cccc(Br)c3)c2N)cc1 — lower, -8.27%
- COc1ccc(C2=NS(=O)(=O)N(C)C(C(=O)N3CCc4ccccc4C3)=C2)cc1OC — lower, -1.06%
- N#CCNC(=O)C(CC1CCCCC1)C(=O)Nc1cccc(C(N)=O)c1 (centres unmarked) — lower, -5.21%
- Cc1ccc(-c2nc(CS(=O)(=O)CC(=O)NCc3ccc4c(c3)OCO4)c(C)o2)cc1 — lower, -5.58%
- C=CCOc1nc(-c2ccc(C)cc2)cc(-c2ccc(OC)cc2)n1 — higher, 1.13%
- Cn1c(CNC(=O)c2ccccc2)nc2ccccc21 — lower, -8.18%
- COc1ccc(CNC(=O)C(CC(C)C)NS(=O)(=O)c2ccc3nc(C)sc3c2)cc1 (centres unmarked) — higher, 2.12%
- O=C(Nc1cccc(C(F)(F)F)c1)c1ccccc1C(=O)c1ncc[nH]1 — higher, 2.65%
- COC(=O)c1c(NC(=O)CCC(=O)O)sc(Cc2ccccc2)c1C — lower, -3.21%
- COc1ccc(CC(C)NC(C)CCCC(C)(C)O)cc1OC (centres unmarked) — lower, -1.81%
- Cc1cc(=O)n2nc(N3CCCC(C(=O)NC(C)c4ccccc4)C3)sc2n1 (centres unmarked) — lower, -0.281%
- COc1ccc(NC(=O)CSc2nc3ccccc3s2)c(OC)c1 — lower, -1.06%
- COc1ccc(C(=O)Nc2ccc3c(c2)C(=O)N(C2CCCCC2)C3=O)cc1 — higher, 2.62%
- CCOc1ccc(CNC(=O)Cn2ncn3c(cc4sc(CC)cc43)c2=O)cc1 — lower, -3.47%
- O=C(O)c1[nH]c(=O)[nH]c(=O)c1CN1CCCCC1 — higher, 1.24%
- Cc1ccc(-c2nc3cc(NC(=O)c4cccs4)ccc3[nH]2)o1 — lower, 0.331%
- CSc1nc(Cl)c(C#N)c(Nc2ccc3c(c2)OCCO3)n1 — higher, 5.87%
- CCNC(=O)/C(=C\c1ccc(OC)cc1)NC(=O)c1ccccc1 — lower, -6.38%
- CSc1ncc(Cl)c(C(=O)N(Cc2ccccc2)c2ccccn2)n1 — lower, -1.35%
- CSc1ncc(C(=O)NCCc2c[nH]c3ccccc23)c(-c2ccccc2)n1 — lower, -2.48%
- Cc1ccc(Cl)cc1NC(=O)c1ccc([N+](=O)[O-])c(C)c1 — lower, -0.546%
- CC(=O)N[C@@H](CC(C)C)C(=O)N[C@H]1CCN(C(=O)[C@H](CC(C)C)NC(=O)c2ccc(-c3cnc(Nc4ccncc4)s3)cc2)C1 — higher, 17%
- O=C1c2ccccc2C(=O)N1CCc1ccccc1 — lower, -5.84%
- CCCC(=O)Nc1nc2nc(CCC)cc(O)n2n1 — higher, 2.05%
- c1cc2nncn2nc1N1CCOCC1 — lower, -0.692%
- CCCSc1nc2c(c(=O)n(C)c(=O)n2C)n1Cc1ccccc1 — higher, 2.46%
- COc1ccc2oc(-c3ccccc3)c(C(=O)N(C)C)c2c1 — higher, 1.37%
- O=C(/C=C/c1ccc(-c2ccc(Cl)cc2)o1)N1CCCCC1 — higher, 5.35%
- CC(=O)Nc1ccc(-c2cnc(-c3ccc(NC(C)=O)cc3)nc2)cc1 — higher, 1.63%
- CCCCn1c(C)c2cc(OC)c(OC)cc2cc1=O — lower, -0.13%
- O=C(O)C1CCCN1Cc1c[nH]c2ccccc12 (centres unmarked) — lower, 0.472%
- Cc1ccccc1/N=c1\scc(-c2ccccc2)n1CCCN1CCOCC1 — higher, 6.1%
- Cc1nn(C)cc1CNC(=O)c1cccc(F)c1 — higher, 2.8%
- O=S(=O)(NCc1ccccc1)c1ccc2[nH]c(O)nc2c1 — lower, 0.0289%
- CCOC(=O)c1nonc1NC(C)=O — higher, 3.39%
- COc1ccccc1-c1cc(N)[nH]n1 — lower, -3.06%
- Cc1ccc(NC(=O)C(C)Sc2nc(N)cc(N)n2)c(C)c1 (centres unmarked) — lower, -5.13%
- O=C(Nc1nnc(Cc2ccccc2)s1)c1ccco1 — higher, 11.8%
- O=C(c1cc(-c2ccc(Cl)c(Cl)c2)on1)N1CCOCC1 — lower, -7.15%
- O=C(NC1CCCCCCC1)c1ccc2c(c1)OCO2 — lower, -4.38%
- COc1cccc(NC(=O)c2ccc3c(c2)OCO3)c1 — higher, 4.32%
- O=C1NC(=S)S/C1=C/c1ccc(O)cc1 — lower, -0.807%
- Cc1ccc(S(=O)(=O)c2nc(S(C)(=O)=O)sc2N2CC(C)OC(C)C2)cc1 (centres unmarked) — higher, 1.15%
- Cc1cccc(Oc2cc(-n3ncc4c3CCCC4=O)ncn2)c1 — lower, -3.94%
- CC(=O)NS(=O)(=O)c1ccc(NC(=O)CCc2ccccc2)cc1 — lower, -3.47%
- O=C(COc1ccc(Cl)cc1Cl)N1CCN(c2ccc([N+](=O)[O-])cc2)CC1 — higher, 7.55%
- COc1cc2c(cc1OC)C(COc1ccc(F)cc1)N(C(C)=O)CC2 (centres unmarked) — higher, 1.42%
- O=C(NCc1nnc(SCC(=O)N2CCOCC2)o1)c1cccs1 — lower, 0.163%
- C=Cc1ccccc1CN1CCOCC1 — lower, -3.66%
- CCCOc1ccc(NC(=O)c2ccc(OC)cc2)cc1 — lower, -1.86%
- Cc1ccc([S+](O)Nc2cccc(Cl)c2)cc1 (centres unmarked) — higher, 3.65%
- CCOc1ccc(C2(C)C(=O)N(CN3CCOCC3)C(=O)N2CN2CCOCC2)cc1 (centres unmarked) — lower, -2.15%
- Cc1ccc(-c2cn3nc(N4CCC(C(=O)NCc5ccccc5C)CC4)sc3n2)cc1 — higher, 2.72%
- CCCCSc1nc(O)c(CC)c(=O)n1-c1ccccc1 — lower, -1.22%
- O=C1NC(=O)/C(=C\c2ccc(O)c(Cl)c2)N1 — higher, 1.31%
- COc1ccc(S(=O)(=O)N2CCN(C)CC2)c(C)c1 — lower, 0.484%
- CCOc1ccc2nc(NC(=O)C3(S(=O)(=O)c4ccc(C)cc4)CC3)sc2c1 — lower, -2.56%
- CC1CCCC(NS(=O)(=O)c2cc(Br)cnc2N)C1C (centres unmarked) — higher, 2.32%
- Cc1nc(-c2ccc(NS(=O)(=O)c3ccc4c5c(cccc35)CC4)cc2)cs1 — lower, -2.03%
- CCOC(=O)c1cnn(-c2ccccc2)c1C — lower, -3.06%
- CC(=O)c1ccc(N2CCN(Cc3cccc4ccccc34)CC2)cc1 — higher, 4.22%
- C=CCn1c(SCC(=O)N2CCCCC2)nc(=O)c(CC)c1O — lower, -1.41%
- Cc1cc(Cl)nc(Cl)c1C(=O)NC(=O)NCCC(C)C — higher, 0.919%
- Cc1ccc(CN2C3CCCC2CC(NC(=O)C2CC2)C3)cc1 (centres unmarked) — lower, -1.07%
- C=CC1CN2CCC1CC2C12Nc3ccccc3C1(O)CCO2 (centres unmarked) — lower, -2.17%
- O=C(Cc1ccccc1)NCc1ccncc1 — higher, 1.63%
- CCN(CC)C(=O)C1CCCN(Cc2cc(C)ccc2C)C1 (centres unmarked) — lower, 0.605%
- Cc1onc(-c2ccccc2)c1C(=O)Nc1ccc(S(=O)(=O)N2CCC(C)CC2)cc1 — lower, -1.63%
- Cc1cccc2c(O)c(NC(=O)NCc3ccc(F)cc3)cnc12 — lower, -1.31%
- CC(=O)Nc1nc(C23CC4CC(CC(C4)C2)C3)cs1 — lower, -0.712%
- O=C(O)c1ccc(OCC(O)Cn2c(Cc3ccccc3)nc3ccccc32)cc1 (centres unmarked) — lower, -3.01%
- COc1ccc(OC)c(/C=C2\SC(Nc3ccc(Br)cc3)=NC2=O)c1 — lower, 0.24%
- Cc1c(C(=O)Nc2ccc(Br)cc2)cccc1[N+](=O)[O-] — lower, -0.856%
- O=C(Nc1ccncc1)C1(c2ccccc2)CCCC1 — lower, -5.9%
- COc1ccc(-c2cc(-c3ccccc3)nc3sc(C#N)c(N)c23)cc1 — higher, 2.03%
- CCc1cc(O)n2nc(C)c(-c3ccccc3OC)c2n1 — higher, 3.25%
- COc1ccc(Cl)cc1-c1nc(/C=N/c2cc(C)ccn2)c(O)o1 — higher, 8.98%
- CCOC(=O)c1c(NC(=O)CN2CCCCCC2)sc2c1CCCC2=O — lower, -4.21%
- Cc1ccc(C(=O)n2nc(-c3cccnc3)nc2NCc2ccc(F)cc2)cc1 — higher, 3.81%
- CCCC1=C(C(=O)OCC)C2(C(=O)Nc3ccccc32)C(C(=O)OC(C)(C)C)=C(N)O1 (centres unmarked) — higher, 2%
- Cn1nc(-c2ccc(C(=O)NCCN3CCOCC3)cc2)c2ccccc2c1=O — lower, 0.315%
- O=C(CCN1C(=O)c2ccccc2C1=O)NCc1ccccc1Cl — lower, -1.99%
- Oc1[nH]c2ccccc2c1/C=N/Cc1ccco1 — higher, 4.55%
- CCN1CCN(c2nc3c(c(=O)[nH]c(=O)n3C)n2CC(O)COC(C)C)CC1 (centres unmarked) — higher, 2.31%
- c1ccc(CCNC2CCN(Cc3ccccc3)CC2)cc1 — lower, 0.472%
- O=C(NCCC1=CCCCC1)c1cc(S(=O)(=O)N2CCCCC2)c[nH]1 — lower, -4.99%
- NC(=O)CC(N)C(=O)O (centres unmarked) — higher, 3.66%
- Cc1csc(NC(=O)Cn2cc(S(=O)(=O)N3CCCC3)c(S(=O)(=O)N3CCCC3)c2)n1 — higher, 3.2%
- Cc1sc(NC(=O)Cc2ccc(Cl)cc2)c(C(N)=O)c1C — higher, 12.6%
- Cn1c(=O)c2c(ncn2Cc2ccc(C(C)(C)C)cc2)n(C)c1=O — higher, 2.22%
- N#CC1=C2SCC(O)(c3ccco3)N2C(=O)CC1c1ccccc1F (centres unmarked) — lower, -1.74%
- CCOc1ccc(CNc2nc3nc(-c4ccccc4)cc(O)n3n2)cc1 — lower, -2.4%
- O=C(/C(=C/c1ccc(Cl)cc1)c1nc2ccccc2[nH]1)c1ccccc1 — lower, -1.59%
- Cc1ccc(S(=O)(=O)Nc2ncccn2)cc1 — higher, 4.3%
- NC(=O)CSc1nccn1Cc1ccccc1 — higher, 1.64%
- COCC(C)Nc1ncnc2c1c(-c1ccccc1)cn2-c1ccc(F)cc1 (centres unmarked) — higher, 8.34%
- COc1ccccc1Cn1c(C(C)O)nc2ccccc21 (centres unmarked) — lower, -3.16%
- Cc1cc(C)c(C(=O)CC(N2CCCCC2)C(F)(F)F)c(O)n1 (centres unmarked) — lower, -2.92%
